# The supplement of paper PMC8728848
# The list shows a part of the results.
# B1: Clone730PsrP (Streptococcus pneumoniae) (protein)
# chain: MDHHHHHHHHHHASENLYFQGAMVVGSQTAAATEATAKKVEEDRKKPASDYVASVTNVNLQSYAKRRKRSVDSIEQLLASIKNAAVFSGNTIVNGAPAINASLNIAKSETKVYTGEGVDSVYRVPIYYKLKVTNDGSKLTFTYTVTYVNPKTNDLGNISSMRPGYSIYNSGTSTQTMLTLGSDLGKPSGVKNYITDKNGRQVLSYNTSTMTTQGSGYTWGNGAQMNGFFAKKGYGLTSSWTVPITGTDTSFTFTPYAARTDRIGINYFNGGGKVVESSTT
# How the values were obtained:
# Experiment in all cases: glycan array binding signal (z-score within array); higher = stronger binding
# Conditions in all cases: glycan notation: IUPAC condensed, linker removed
# [1] = molecular target: Fuc(a1-2)Gal
# Procedure, shortened: (§1)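 Glycan array data were curated from 3228 arrays in the Consortium for Functional Glycomics database and kept only where the protein sequence was available. Glycan names were converted to IUPAC-condensed notation, and columns mapping to the same glycan were averaged. The binding signal is a within-array Z-score, averaged across arrays of the same protein sequence at different concentrations or buffers and across linkers. Negative Z-scores can be read as non-binding.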
# [2] = molecular target: Fuc(a1-2)Gal(b1-3)GalNAc
# Procedure, shortened: as §1
# [3] = molecular target: Fuc(a1-2)Gal(b1-3)GalNAc(a1-3)[Fuc(a1-2)]Gal(b1-4)Glc
# Procedure, shortened: as §1
# [4] = molecular target: Fuc(a1-2)Gal(b1-3)GalNAc(a1-3)[Fuc(a1-2)]Gal(b1-4)GlcNAc
# Procedure, shortened: as §1
# [5] = molecular target: Fuc(a1-2)Gal(b1-3)GalNAc(b1-3)Gal
# Procedure, shortened: as §1
# [6] = molecular target: Fuc(a1-2)Gal(b1-3)GalNAc(b1-3)Gal(a1-4)Gal(b1-4)Glc
# Procedure, shortened: as §1
# [7] = molecular target: Fuc(a1-2)Gal(b1-3)GalNAc(b1-4)[Neu5Ac(a2-3)]Gal(b1-4)Glc
# Procedure, shortened: as §1
# [8] = molecular target: Fuc(a1-2)Gal(b1-3)GlcNAc
# Procedure, shortened: as §1
# [9] = molecular target: Fuc(a1-2)Gal(b1-3)GlcNAc(b1-2)Man(a1-3)[Fuc(a1-2)Gal(b1-3)GlcNAc(b1-2)Man(a1-6)]Man(b1-4)GlcNAc(b1-4)GlcNAc
# Procedure, shortened: as §1
# [10] = molecular target: Fuc(a1-2)Gal(b1-3)GlcNAc(b1-2)Man(a1-3)[Fuc(a1-2)Gal(b1-3)GlcNAc(b1-2)Man(a1-6)]Man(b1-4)GlcNAc(b1-4)[Fuc(a1-6)]GlcNAc
# Procedure, shortened: as §1
# [11] = molecular target: Fuc(a1-2)Gal(b1-3)GlcNAc(b1-3)Gal(b1-4)Glc
# Procedure, shortened: as §1
# [12] = molecular target: Fuc(a1-2)Gal(b1-3)GlcNAc(b1-3)GalNAc
# Procedure, shortened: as §1
# [13] = molecular target: Fuc(a1-2)Gal(b1-3)GlcNAc(b1-3)[Fuc(a1-2)Gal(b1-3)GlcNAc(b1-6)]GalNAc
# Procedure, shortened: as §1
# [14] = molecular target: Fuc(a1-2)Gal(b1-3)GlcNAc(b1-3)[Gal(b1-4)GlcNAc(b1-6)]Gal(b1-4)Glc
# Procedure, shortened: as §1
# [15] = molecular target: Fuc(a1-2)Gal(b1-3)GlcNAc(b1-3)[Neu5Ac(a2-6)Gal(b1-4)GlcNAc(b1-6)]Gal(b1-4)Glc
# Procedure, shortened: as §1
# [16] = molecular target: Fuc(a1-2)Gal(b1-3)GlcNAc6S
# Procedure, shortened: as §1
# [17] = molecular target: Fuc(a1-2)Gal(b1-3)[Fuc(a1-4)]GlcNAc
# Procedure, shortened: as §1
# [18] = molecular target: Fuc(a1-2)Gal(b1-3)[Fuc(a1-4)]GlcNAc(b1-2)Man(a1-3)[Fuc(a1-2)Gal(b1-3)[Fuc(a1-4)]GlcNAc(b1-2)Man(a1-3)]Man(b1-4)GlcNAc(b1-4)GlcNAc
# Procedure, shortened: as §1
# [19] = molecular target: Fuc(a1-2)Gal(b1-3)[Fuc(a1-4)]GlcNAc(b1-2)Man(a1-3)[Fuc(a1-2)Gal(b1-3)[Fuc(a1-4)]GlcNAc(b1-2)Man(a1-6)]Man(b1-4)GlcNAc(b1-4)[Fuc(a1-6)]GlcNAc(b1-4)[Fuc(a1-6)]GlcNAc
# Procedure, shortened: as §1
# [20] = molecular target: Fuc(a1-2)Gal(b1-3)[Fuc(a1-4)]GlcNAc(b1-3)[Fuc(a1-3)[Gal(b1-4)]GlcNAc(b1-6)]Gal(b1-4)Glc
# Procedure, shortened: as §1
# [21] = molecular target: Fuc(a1-2)Gal(b1-3)[Fuc(a1-4)]GlcNAc(b1-3)[Gal(b1-4)GlcNAc(b1-6)]Gal(b1-4)Glc
# Procedure, shortened: as §1
# [22] = molecular target: Fuc(a1-2)Gal(b1-4)Glc
# Procedure, shortened: as §1
# [23] = molecular target: Fuc(a1-2)Gal(b1-4)Glc6S
# Procedure, shortened: as §1
# [24] = molecular target: Fuc(a1-2)Gal(b1-4)GlcNAc
# Procedure, shortened: as §1
# [25] = molecular target: Fuc(a1-2)Gal(b1-4)GlcNAc(b1-2)Man
# Procedure, shortened: as §1
# [26] = molecular target: Fuc(a1-2)Gal(b1-4)GlcNAc(b1-2)Man(a1-3)[Fuc(a1-2)Gal(b1-4)GlcNAc(b1-2)Man(a1-6)]Man(b1-4)GlcNAc(b1-4)GlcNAc
# Procedure, shortened: as §1
# [27] = molecular target: Fuc(a1-2)Gal(b1-4)GlcNAc(b1-2)Man(a1-3)[Fuc(a1-2)Gal(b1-4)GlcNAc(b1-2)Man(a1-6)]Man(b1-4)GlcNAc(b1-4)[Fuc(a1-6)]GlcNAc
# Procedure, shortened: as §1
# [28] = molecular target: Fuc(a1-2)Gal(b1-4)GlcNAc(b1-2)[Fuc(a1-2)Gal(b1-4)GlcNAc(b1-4)]Man(a1-3)[Fuc(a1-2)Gal(b1-4)GlcNAc(b1-2)Man(a1-6)]Man(b1-4)GlcNAc(b1-4)GlcNAc
# Procedure, shortened: as §1
# [29] = molecular target: Fuc(a1-2)Gal(b1-4)GlcNAc(b1-3)Gal(b1-4)GlcNAc
# Procedure, shortened: as §1
# [30] = molecular target: Fuc(a1-2)Gal(b1-4)GlcNAc(b1-3)Gal(b1-4)GlcNAc(b1-2)Man(a1-3)[Fuc(a1-2)Gal(b1-4)GlcNAc(b1-3)Gal(b1-4)GlcNAc(b1-2)Man(a1-6)]Man(b1-4)GlcNAc(b1-4)GlcNAc
# Procedure, shortened: as §1
binder,measurement,setting,value
B1,glycan array binding signal (z-score),[1],0.412
same,glycan array binding signal (z-score),[2],-0.457
same,glycan array binding signal (z-score),[3],-0.346
same,glycan array binding signal (z-score),[4],-0.078
same,glycan array binding signal (z-score),[5],0.821
same,glycan array binding signal (z-score),[6],0.225
same,glycan array binding signal (z-score),[7],-0.481
same,glycan array binding signal (z-score),[8],-0.129
same,glycan array binding signal (z-score),[9],1.26
same,glycan array binding signal (z-score),[10],1.56
same,glycan array binding signal (z-score),[11],-0.537
same,glycan array binding signal (z-score),[12],-0.492
same,glycan array binding signal (z-score),[13],1.96
same,glycan array binding signal (z-score),[14],-0.516
same,glycan array binding signal (z-score),[15],-0.417
same,glycan array binding signal (z-score),[16],0.256
same,glycan array binding signal (z-score),[17],-0.525
same,glycan array binding signal (z-score),[18],1.5
same,glycan array binding signal (z-score),[19],-0.364
same,glycan array binding signal (z-score),[20],-0.531
same,glycan array binding signal (z-score),[21],-0.542
same,glycan array binding signal (z-score),[22],-0.019
same,glycan array binding signal (z-score),[23],0.611
same,glycan array binding signal (z-score),[24],-0.115
same,glycan array binding signal (z-score),[25],0.361
same,glycan array binding signal (z-score),[26],-0.472
same,glycan array binding signal (z-score),[27],-0.124
same,glycan array binding signal (z-score),[28],-0.122
same,glycan array binding signal (z-score),[29],-0.334
same,glycan array binding signal (z-score),[30],-0.077
